Source: PubChem BioAssay AID588342 (National Center for Advancing Translational Sciences (NCATS), 2011)
In all, about 360,000 compounds went through this assay and about 25,000 (6.9%) were called active. Inconclusive results, whose numbers are uncertain, are shown with a selection of clear calls. The call rests on the fitted dose curve; in most records, active means well fitted inhibition curve with a large enough effect; inconclusive means small, poorly fitted or top-dose-only effect; inactive means flat fitted curve, though single readings scatter. A potency beside an inconclusive call is a rough fit, not a confirmed value.

Molecular target: Luciferin 4-monooxygenase (Photinus pyralis) (UniProt P08659)
Assay: qHTS profiling assay for firefly luciferase inhibitor/activator using purifed enzyme and Km concentrations of substrates (counterscreen for miR-21 project); further: nearly all actives have a fitted effect of over 55% in size
Settings: purified FLuc, luminescence inhibition; series mostly up to 57.5 µM
Method in brief: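 Purified P. pyralis luciferase (10nM final) with 10uM D-luciferin and 10uM ATP (Km levels) in 50mM Tris acetate pH 7.5, 10mM Mg acetate, 0.01% Tween-20, 0.05% BSA; qHTS 6-point titration, ~60 µM downward; luminescence read.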
Potency means the concentration at half of the fitted maximal effect; tags describe the fitted curve by direction and shape.

Chain of UniProt P08659 (P08659 whole entry, looked up): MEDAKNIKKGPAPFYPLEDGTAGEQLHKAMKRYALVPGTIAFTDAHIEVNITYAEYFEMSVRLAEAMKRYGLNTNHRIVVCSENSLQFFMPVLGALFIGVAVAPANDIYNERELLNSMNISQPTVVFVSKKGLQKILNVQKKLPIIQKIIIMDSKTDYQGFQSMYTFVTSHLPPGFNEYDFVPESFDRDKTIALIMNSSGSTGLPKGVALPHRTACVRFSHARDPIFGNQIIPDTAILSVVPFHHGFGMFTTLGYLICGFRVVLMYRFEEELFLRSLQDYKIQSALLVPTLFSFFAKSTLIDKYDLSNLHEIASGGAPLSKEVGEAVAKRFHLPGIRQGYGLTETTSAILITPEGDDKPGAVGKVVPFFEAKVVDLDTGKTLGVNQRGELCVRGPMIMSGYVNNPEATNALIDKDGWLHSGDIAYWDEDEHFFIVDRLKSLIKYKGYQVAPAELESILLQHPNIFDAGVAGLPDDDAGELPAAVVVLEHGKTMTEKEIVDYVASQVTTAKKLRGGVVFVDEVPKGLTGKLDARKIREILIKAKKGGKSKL

| Compound | Potency |
| --- | --- |
| CC(=O)NCCCc1nc2ccccc2n1Cc1c(F)cccc1Cl | inactive |
| CN(C)c1ccc(CNc2ccc3c(c2)ncn3C)cc1 | inconclusive: 10.7 µM [inhibitor, partial curve, poor fit] |
| CC(C)C(NC(=O)c1ccc(C(C)(C)C)cc1)C(=O)O (stereo not drawn) | inconclusive: 19 µM [inhibitor, single point] |
| CCOC(=O)c1cccc(NC(=O)c2cc3ccccn3n2)c1 | active: 3.01 µM |
| Cc1ccc(N2C(=O)[C@@H]3Cc4ccccc4CN3C2=O)cc1 | inconclusive: 8.49 µM [inhibitor, partial curve, poor fit] |
| CS(=O)(=O)N(CC(=O)O)Cc1cccc(CN(CC(=O)O)S(C)(=O)=O)c1 | inactive |
| COc1cccc(NC(=O)COc2ccccc2)c1 | inconclusive: 23.9 µM [inhibitor, single point] |
| CCN(CC)C(=O)c1cccc(NC(=O)c2ccccc2OCc2c(C)noc2C)c1 | inconclusive: 37.9 µM [inhibitor, partial curve, poor fit] |
| COc1cccc2cc(-c3ccnc(N)n3)oc12 | inconclusive: 12 µM [inhibitor, partial curve, poor fit] |
| CCOc1ccc2nc(N(Cc3ccccc3)C(=O)CCNC(C)=O)sc2c1 | inactive |
| Cc1cccc(NS(=O)(=O)c2ccc3[nH]c4c(c3c2)CCCCCC4)c1 | inconclusive: 37.9 µM [inhibitor, partial curve, poor fit] |
| CCOc1cccc2c1N[C@@H](c1ccc(C(=O)O)cc1)[C@H]1CC=C[C@@H]21 | inconclusive: 19 µM [inhibitor, partial curve] |
| Cc1ccc(NC(=O)c2ccccc2)s1 | active: 2.69 µM |
| CCOC(=O)c1ccc(NC(=S)NC2CCCC2)cc1 | inconclusive: 19 µM [inhibitor, partial curve] |
| COc1ccccc1NC(=O)CSc1nnc(NC(=O)c2ccco2)s1 | active: 15.1 µM |
| COc1cc(OC)cc(C(=O)Nc2ccc([N+](=O)[O-])cn2)c1 | inactive |
| O=C(Nc1cccc(C(=O)N2CCN(c3cccc(Cl)c3)CC2)c1)c1ccccc1 | inactive |
| CCCn1c(=O)n(C)c(=O)c2c(SCC(=O)NC34CC5CC(CC(C5)C3)C4)nc(CC(C)C)nc21 | inactive |
| CC(C)(C)C(=O)Nc1nc2cc3c(cc2s1)OCO3 | active: 4.78 µM |
| COC(=O)N=Nc1c(O)n(Cc2ccccc2)c2ccccc12 | inconclusive: 37.9 µM [inhibitor, single point] |
| CC(NC(=O)C(=O)NN=C1CCCC1)c1ccccc1 (stereo not drawn) | inactive |
| O=C(Nc1ccccc1C(=O)Nc1ccncc1)c1cccc([N+](=O)[O-])c1 | active: 0.0953 µM |
| CCS(=O)(=O)c1ccc(-c2csc(-c3ccc(Cl)cc3)n2)c(Cl)c1Cl | inconclusive: 10.7 µM [inhibitor, partial curve] |
| CN(C)c1ccc(C(=O)NCC2CCCO2)cc1 (stereo not drawn) | inconclusive: 26.9 µM [inhibitor, single point] |
| CCN(CC)Cc1cc(C(=O)O)c(C)o1 | inconclusive: 37.9 µM [inhibitor, partial curve, poor fit] |

| Compound | Potency |
| --- | --- |
| Cc1c(C(=O)O)cccc1-c1ccc(/C=C2/NC(=O)N(c3ccccc3)C2=O)o1 | active: 9.53 µM |
| Nc1nc(SCC(=O)NCCCO)nc2sc3c(c12)CCC3 | inactive |
| CCOC(=O)C1=C(C)Nc2ccc(C)cc2S1 | inconclusive: 19 µM [inhibitor, partial curve, poor fit] |
| CCn1c(/C=C/c2ccccc2[N+](=O)[O-])nc2ccccc2c1=O | inconclusive: 26.9 µM [inhibitor, partial curve, poor fit] |
| CN1CCN(c2ccccc2NC(=O)c2cc3ccccc3o2)CC1 | inconclusive: 23.9 µM [inhibitor, partial curve, poor fit] |
| Cc1ccc(C(=O)Nc2cccc(C(=O)N3CCN(C)CC3)c2)cc1 | active: 9.53 µM |
| O=C1CN(C(=O)COc2ccc([N+](=O)[O-])cc2Cl)c2ccccc2N1 | inconclusive: 23.9 µM [inhibitor, partial curve, poor fit] |
| O=C(Cc1cccs1)Nc1cccc(C(=O)Nc2ccco2)c1 | inconclusive: 37.9 µM [inhibitor, partial curve, poor fit] |
| c1ccc(CSc2nnc(-c3cccnc3)o2)cc1 | inconclusive: 37.9 µM [inhibitor, single point] |
| COc1ccc(-c2cc(C(=O)NCCCN3CCOCC3)c3ccccc3n2)cc1OC | inactive |
| Cc1nn(Cc2ccc(F)cc2)c(Cl)c1/C=N/NC(=O)c1ccccc1 | inconclusive: 26.9 µM [inhibitor, single point] |
| Cc1ccc(C)c(NC(=O)C2CCN(c3nn4c(=O)cc(C)nc4s3)CC2)c1 | inactive |
| CSc1ccc(/C=C(/NC(=O)c2ccccc2)C(=O)NCCN2CCOCC2)cc1 | inactive |
| CCC(C)[C@H](NS(=O)(=O)c1ccc(C)cc1)C(=O)N1CCC(C(=O)N2CCC(C(N)=O)CC2)CC1 (stereo partly drawn) | inactive |
| COc1ccc(C(=O)NC2CC2)cc1OC1CCN(Cc2ccc(F)c(F)c2)CC1 | inactive |
| CC(=O)Nc1cccc(-c2csc(Nc3ncccn3)n2)c1 | active: 2.13 µM |
| COc1cc(-c2nc(-c3ccccc3)c(-c3cccs3)[nH]2)cc(OC)c1O | inconclusive: 33.8 µM [inhibitor, partial curve, poor fit] |
| CC(=O)Nc1cccc(/C(C)=N/NC(=O)c2cc(-c3ccncc3)nc3ccccc23)c1 | inconclusive: 26.9 µM [inhibitor, single point] |
| COc1ccc(NC(=O)c2c(N)c(C(=O)c3ccc(C)cc3)n3ccccc23)cc1OC | inactive |
| COCCn1c(SCC(=O)N2CC(=O)Nc3ccccc32)nc2ccccc21 | inactive |
| O=C(Nc1ccc2oc(-c3ccncc3)nc2c1)c1ccccc1F | inconclusive: 12 µM [inhibitor, partial curve] |
| COC(=O)[C@@H]1CCCN1C(=O)c1cc(COc2cccc3cccnc23)on1 | inactive |
| Cc1ccc(NC(=O)C2COc3ccccc3O2)c(C)c1 (stereo not drawn) | inconclusive: 37.9 µM [inhibitor, single point] |
| Cc1ccc(-n2ncc3c(Nc4cccc(C)c4)ncnc32)cc1 | inconclusive: 4.26 µM [inhibitor, full curve, poor fit] |
| CCCN(CCC)Cc1c(C(=O)N/N=C/C(C)=C\c2ccccc2)nnn1-c1nonc1N | inactive |

| Compound | Potency |
| --- | --- |
| O=C(Nc1cnn(Cc2ccccc2)c1)NC12CC3CC(CC(C3)C1)C2 | inconclusive: 19 µM [inhibitor, partial curve, poor fit] |
| CC(NC(=O)CCc1nnc(-c2ccc(-c3ccccc3)cc2)o1)c1nc2ccccc2[nH]1 (stereo not drawn) | active: 10.7 µM |
| Cc1ccc(NC(=S)NNC(C)(C)C)cc1 | inconclusive: 13.5 µM [inhibitor, partial curve] |
| Cc1ccc(C(=O)COC(=O)CNC(=O)CNC(=O)c2ccc(C)cc2)cc1 | inconclusive: 37.9 µM [inhibitor, partial curve, poor fit] |
| CC(C)(C)C(=O)NC(=S)NNC(=O)C(c1ccccc1)c1ccccc1 | inactive |
| Cc1occc1C(=O)/C(C#N)=C/c1ccc(O)c(Br)c1 | inconclusive: 37.9 µM [inhibitor, single point] |
| CC(OC(=O)CCc1cc(C(C)(C)C)c(O)c(C(C)(C)C)c1)C(=O)NC1CC1 (stereo not drawn) | inconclusive: 37.9 µM [inhibitor, partial curve, poor fit] |
| COc1cccc(-c2nnc(SCc3nc4ccccc4s3)n2C)c1 | inconclusive: 37.9 µM [inhibitor, single point] |
| COc1cc2[nH]c(C(=O)NN)c(N)c2cc1OC | inconclusive: 23.9 µM [inhibitor, partial curve, poor fit] |
| N#Cc1c(C(F)(F)F)cc(-c2ccccc2)nc1SCC(=O)Nc1sc2c(c1C#N)CCC2 | inactive |
| CCO[C@H]1OC(C(=O)NC2CC2)=C[C@@H](c2csc3ccccc23)[C@@H]1CCCO | inactive |
| O=C(C1CCN(c2nc3ccccc3[nH]2)CC1)N1CCN(c2ccccc2)CC1 | inactive |
| COc1cccc(-c2ccc(=O)n(CC(=O)Nc3ccc(C(=O)N4CCCC4)cc3)n2)c1 | inconclusive: 37.9 µM [inhibitor, partial curve, poor fit] |
| COc1ccc2oc(C(=O)Nc3nc(-c4ccccn4)cs3)c(C)c2c1 | inconclusive: 8.49 µM [inhibitor, single point] |
| CC(=O)Nc1c(C(=O)O)oc2ccccc12 | inactive |
| N#C/C(=C\c1ccc(Sc2nc3ccccc3[nH]2)o1)c1ccccc1 | inactive |
| CCOC(=O)c1c(C)oc2c1c(CN1CCN(C(=O)OCC)CC1)c(O)c1ccccc12 | inconclusive: 21.3 µM [inhibitor, partial curve, poor fit] |
| CN(C(=O)c1ccc2c(c1)N(Cc1ccccc1F)C(=O)c1ccccc1S2)C1CCCCC1 | inactive |
| CCC(N=c1cc(-c2ccc(OC)cc2)oc2ccc(C)cc12)C(=O)O (stereo not drawn) | active: 3.01 µM |
| CCS(=O)(=O)N1CCCC(C(=O)NC2CCC(C)CC2)C1 (stereo not drawn) | inactive |
| Cc1cccc(-c2noc(-c3ccc(NCC4CCCO4)c([N+](=O)[O-])c3)n2)c1 (stereo not drawn) | inconclusive: 6.75 µM [inhibitor, full curve] |
| O=C(Nc1ccc(S(=O)(=O)N2CCCCCC2)cc1)c1[nH]ncc1[N+](=O)[O-] | active: 16.9 µM |
| O=C(c1cc(-c2ccc(Cl)c(Cl)c2)on1)N1CCN(c2ccccc2)CC1 | inconclusive: 37.9 µM [inhibitor, partial curve, poor fit] |
